The supplement of paper PMC4604168 (melanoma cell lines)
This is one part of the list. Most values come without repeats; read them as rough.

Test system: A2058
Experiment: cell count relative to DMSO control; melanoma cells; higher = more viable cells
Details: library dose: standard library concentration; 72 h
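Note: cells treated in 1,536-well plates, then fixed and DAPI-stained, with nuclei counted from automated high-throughput microscope images.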

| SMILES | cell count |
| --- | --- |
| Cc1cc(Nc2cc(N3CCN(C)CC3)nc(/C=C/c3ccccc3)n2)n[nH]1 + N#Cc1c(O)c2c(-c3ccc(-c4ccccc4O)cc3)csc2[nH]c1=O [A769662] (first compound 0.2 µM, partner dose 10 µM) | 76.7% |
| CC(C)C[C@H](NC(=O)[C@H](Cc1ccccc1)NC(=O)c1cnccn1)B(O)O [Bortezomib] + O=S(=O)(c1ccccc1)N(CC(F)(F)F)c1ccc(C(O)(C(F)(F)F)C(F)(F)F)cc1 [T0901317] (first compound 0.005 µM, partner dose 7 µM) | 7.11% |
| Cn1c(=O)n(-c2ccc(C(C)(C)C#N)cc2)c2c3cc(-c4cnc5ccccc5c4)ccc3ncc21 + CC(C)CCN1c2nc(Nc3cc(F)c(O)c(F)c3)ncc2N(C)C(=O)C1C [BID1870] (first compound 0.02 µM, partner dose 1 µM) | 57.8% |
| Cc1cn(-c2cc(NC(=O)c3ccc(C)c(Nc4nccc(-c5cccnc5)n4)c3)cc(C(F)(F)F)c2)cn1 [nilotinib] + Cn1cncc1[C@@](N)(c1ccc(Cl)cc1)c1ccc2c(c1)c(-c1cccc(Cl)c1)cc(=O)n2C [tipifarnib] (first compound 1 µM, partner dose 0.05 µM) | 90.8% |
| Cn1c(=O)n(-c2ccc(C(C)(C)C#N)cc2)c2c3cc(-c4cnc5ccccc5c4)ccc3ncc21 + COC(=O)c1sccc1S(=O)(=O)Nc1ccc(Nc2ccccc2)cc1OC [GSK0660] (first compound 0.02 µM, partner dose 5 µM) | 54.2% |
| CC(C)C[C@H](NC(=O)[C@H](Cc1ccccc1)NC(=O)c1cnccn1)B(O)O [Bortezomib] + Oc1cc(-c2nc(-c3ccccc3)[nH]c2-c2ccncc2)ccc1Cl [L779450] (first compound 0.005 µM, partner dose 1 µM) | 9.64% |
| Cc1cn(-c2cc(NC(=O)c3ccc(C)c(Nc4nccc(-c5cccnc5)n4)c3)cc(C(F)(F)F)c2)cn1 [nilotinib] + C[C@@H]1CCN(C(=O)CC#N)C[C@@H]1N(C)c1ncnc2[nH]ccc12 [CP690550] (first compound 1 µM, partner dose 5 µM) | 98% |
| Cc1cn(-c2cc(NC(=O)c3ccc(C)c(Nc4nccc(-c5cccnc5)n4)c3)cc(C(F)(F)F)c2)cn1 [nilotinib] + CCN(CC)CCCCNc1ncc2cc(-c3cc(OC)cc(OC)c3)c(NC(=O)NC(C)(C)C)nc2n1 [PD173074] (first compound 1 µM, partner dose 0.5 µM) | 102% |
| COc1ccc(C2=N[C@@H](c3ccc(Cl)cc3)[C@@H](c3ccc(Cl)cc3)N2C(=O)N2CCNC(=O)C2)c(OC(C)C)c1 [Nutlin-3] + CC(=O)O[C@@]12CO[C@@H]1C[C@H](O)[C@@]1(C)C(=O)[C@H](O)C3=C(C)[C@@H](OC(=O)[C@H](O)[C@@H](NC(=O)OC(C)(C)C)c4ccccc4)C[C@@](O)([C@@H](OC(=O)c4ccccc4)[C@H]21)C3(C)C [Docetaxel] (first compound 0.5 µM, partner dose 0.0005 µM) | 8.42% |
| CC(C)C[C@H](NC(=O)[C@H](Cc1ccccc1)NC(=O)c1cnccn1)B(O)O [Bortezomib] + CCCCCCCCCCCC1=C(O)C(=O)C=C(O)C1=O [Embelin] (first compound 0.005 µM, partner dose 6 µM) | 111% |
| Cn1c(=O)n(-c2ccc(C(C)(C)C#N)cc2)c2c3cc(-c4cnc5ccccc5c4)ccc3ncc21 + N#Cc1c(O)c2c(-c3ccc(-c4ccccc4O)cc3)csc2[nH]c1=O [A769662] (first compound 0.02 µM, partner dose 10 µM) | 71.4% |
| Cc1cn(-c2cc(NC(=O)c3ccc(C)c(Nc4nccc(-c5cccnc5)n4)c3)cc(C(F)(F)F)c2)cn1 [nilotinib] + COc1ccc(-c2ccc3c(N4CCOCC4)nc(N4C[C@@H](C)O[C@@H](C)C4)nc3n2)cc1CO [KU0063794] (first compound 1 µM, partner dose 0.1 µM) | 88.4% |
| Cc1cn(-c2cc(NC(=O)c3ccc(C)c(Nc4nccc(-c5cccnc5)n4)c3)cc(C(F)(F)F)c2)cn1 [nilotinib] + CCCS(=O)(=O)Nc1ccc(F)c(C(=O)c2c[nH]c3ncc(Cl)cc23)c1F [PLX4720] (first compound 1 µM, partner dose 0.4 µM) | 121% |
| Cc1cn(-c2cc(NC(=O)c3ccc(C)c(Nc4nccc(-c5cccnc5)n4)c3)cc(C(F)(F)F)c2)cn1 [nilotinib] + NC1(c2ccc(-c3nc4ccn5c(=O)[nH]nc5c4cc3-c3ccccc3)cc2)CCC1 [MK2206] (first compound 1 µM, partner dose 2 µM) | 81.2% |
| COc1ccc(C2=N[C@@H](c3ccc(Cl)cc3)[C@@H](c3ccc(Cl)cc3)N2C(=O)N2CCNC(=O)C2)c(OC(C)C)c1 [Nutlin-3] + COc1ccc2c(c1)CCC1C2CCC2(C)C(NCCCCCCN3C(=O)C=CC3=O)CCC12 [U73122] (first compound 0.5 µM, partner dose 2 µM) | 58.5% |
| COc1ccc(C2=N[C@@H](c3ccc(Cl)cc3)[C@@H](c3ccc(Cl)cc3)N2C(=O)N2CCNC(=O)C2)c(OC(C)C)c1 [Nutlin-3] + O=C(Nc1ccccc1)c1cc([N+](=O)[O-])ccc1Cl [GW9662] (first compound 0.5 µM, partner dose 10 µM) | 71.9% |
| COc1ccc(C2=N[C@@H](c3ccc(Cl)cc3)[C@@H](c3ccc(Cl)cc3)N2C(=O)N2CCNC(=O)C2)c(OC(C)C)c1 [Nutlin-3] + CO[C@H]1C[C@@H]2CC[C@@H](C)[C@@](O)(O2)C(=O)C(=O)N2CCCC[C@H]2C(=O)O[C@H]([C@H](C)C[C@@H]2CC[C@@H](OCCO)[C@H](OC)C2)CC(=O)[C@H](C)/C=C(\C)[C@@H](O)[C@@H](OC)C(=O)[C@H](C)C[C@H](C)/C=C/C=C/C=C/1C [everolimus] (first compound 0.5 µM, partner dose 0.1 µM) | 58.3% |
| Cc1cn(-c2cc(NC(=O)c3ccc(C)c(Nc4nccc(-c5cccnc5)n4)c3)cc(C(F)(F)F)c2)cn1 [nilotinib] + Cn1sc(=O)n(Cc2ccccc2)c1=O [TDZD-8] (first compound 1 µM, partner dose 2 µM) | 95.8% |
| Cn1c(=O)n(-c2ccc(C(C)(C)C#N)cc2)c2c3cc(-c4cnc5ccccc5c4)ccc3ncc21 + COc1cc(N2CCC(N3CCN(C)CC3)CC2)ccc1Nc1ncc(Cl)c(Nc2ccccc2S(=O)(=O)C(C)C)n1 [NVP-TAE684] (first compound 0.02 µM, partner dose 0.4 µM) | 52.4% |
| COc1ccc(C2=N[C@@H](c3ccc(Cl)cc3)[C@@H](c3ccc(Cl)cc3)N2C(=O)N2CCNC(=O)C2)c(OC(C)C)c1 [Nutlin-3] + C[C@]1(c2nc3c(C(N)=O)cccc3[nH]2)CCCN1 [Veliparib] (first compound 0.5 µM, partner dose 7 µM) | 73.5% |
| Cc1cn(-c2cc(NC(=O)c3ccc(C)c(Nc4nccc(-c5cccnc5)n4)c3)cc(C(F)(F)F)c2)cn1 [nilotinib] + COc1cc2c(Oc3ccc4[nH]c(C)cc4c3F)ncnc2cc1OCCCN1CCCC1 [cediranib] (first compound 1 µM, partner dose 2 µM) | 118% |
| CC(C)C[C@H](NC(=O)[C@H](Cc1ccccc1)NC(=O)c1cnccn1)B(O)O [Bortezomib] + COc1cc2ncnc(Nc3ccc(Oc4ccccc4)cc3)c2cc1OC [SrcI1] (first compound 0.005 µM, partner dose 10 µM) | 14.9% |
| Cn1c(=O)n(-c2ccc(C(C)(C)C#N)cc2)c2c3cc(-c4cnc5ccccc5c4)ccc3ncc21 + Cc1cc(N2CCOCC2)cc2[nH]c(-c3c(NC[C@@H](O)c4cccc(Cl)c4)cc[nH]c3=O)nc12 [BMS536924] (first compound 0.02 µM, partner dose 1 µM) | 56.8% |
| Cn1c(=O)n(-c2ccc(C(C)(C)C#N)cc2)c2c3cc(-c4cnc5ccccc5c4)ccc3ncc21 + CCc1ccc(CCOc2ccc(CC3SC(=O)NC3=O)cc2)nc1 [pioglitazone] (first compound 0.02 µM, partner dose 10 µM) | 77% |
| Cc1cc(Nc2cc(N3CCN(C)CC3)nc(/C=C/c3ccccc3)n2)n[nH]1 + COc1ccc2c(c1)CCC1C2CCC2(C)C(NCCCCCCN3C(=O)C=CC3=O)CCC12 [U73122] (first compound 0.2 µM, partner dose 2 µM) | 49.6% |
| COc1ccc(C2=N[C@@H](c3ccc(Cl)cc3)[C@@H](c3ccc(Cl)cc3)N2C(=O)N2CCNC(=O)C2)c(OC(C)C)c1 [Nutlin-3] + O=C(O)C(=O)Nc1sc2c(c1C(=O)O)CCNC2 [TCS401] (first compound 0.5 µM, partner dose 8.33333 µM) | 98.7% |
| Cc1cn(-c2cc(NC(=O)c3ccc(C)c(Nc4nccc(-c5cccnc5)n4)c3)cc(C(F)(F)F)c2)cn1 [nilotinib] + COc1cc(N2CCC(N3CCN(C)CC3)CC2)ccc1Nc1ncc(Cl)c(Nc2ccccc2S(=O)(=O)C(C)C)n1 [NVP-TAE684] (first compound 1 µM, partner dose 0.4 µM) | 93.5% |
| Cc1cc(Nc2cc(N3CCN(C)CC3)nc(/C=C/c3ccccc3)n2)n[nH]1 + Oc1cc(-c2nc(-c3ccccc3)[nH]c2-c2ccncc2)ccc1Cl [L779450] (first compound 0.2 µM, partner dose 1 µM) | 55.5% |
